± gives the standard deviation of the averaged measurements. The list shows a part of the results.
system: PfAP2-G AP2 domain (GST-tagged); test: gcPBM binding intensity (ln(normalized median fluorescence intensity)); higher = stronger DNA binding
In short: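 Plasmodium falciparum DNA-binding domains carrying a GST tag were expressed in E. coli and applied for 1 h, at about 25 μg on average, to an Agilent 4 × 180k array. The array held primer-extended double-stranded 36-bp intergenic genomic probes together with negative controls, and binding took place in 1× PBS with 1% milk, 0.2 mg/ml BSA, 0.5% salmon testes DNA and 0.03% Triton X-100. An Alexa488 anti-GST antibody detected bound protein, and the array was scanned at 488 nm. Binding intensity is taken as the highest Masliner-normalised natural-log median intensity across replicate spots of either probe orientation.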

Row | Sequence | gcPBM binding intensity (ln)
1 | TCTTTTCTCGGAAGGGTGCAAGGAATTAATGAAATA [GTGCAC_site9706] | 10.2 ± 0.3
2 | AATTTTCAATAGTATACACACAATTATATATATATA [CACACA_site1116] | 10.2 ± 0.36
3 | AATTGAAAAAGAAATTGTACATTTTATTTTTATTAT [XGTACX_site1973] | 10.9 ± 0.42
4 | ATATAATTTATATATTCACACAAGGAATACTTTTAT [CACACA_site5506] | 10.2 ± 0.28
5 | TAGTATAATATGAACACACACACACCGACAAAAAAA [CACACA_site5151] | 10.5 ± 0.4
6 | ATACATATATATATATGTACATATGTATTTTTTATT [XGTACX_site105] | 11 ± 0.68
7 | AATAAAATATATTCCTGTACATATGATTCTTTTTTT [XGTACX_site7980] | 10.9 ± 0.67
8 | TTTACATATTTATATACACACTTTTGCGTGCGTGGT [CACACA_site6647] | 10.1 ± 0.13
9 | ACTATACAGTTATACACACACATATATCTATAATAT [CACACA_site6283] | 10.18 ± 0.042
10 | ATTACAAATACAAACACACAAATGTTTTTCATTCAA [CACACA_site7639] | 9.8 ± 0.042
11 | ATGGAATAATCACGTACACACAAGAAAAAAAAAAAT [CACACA_site527] | 11.5 ± 1
12 | GGATAATATATTAGAACACACATATATATGTAAAAA [CACACA_site185] | 10.03 ± 0.042
13 | AAACAAAAAATAAAATGTACATTTATTACGATAAGT [XGTACX_site2392] | 11.1 ± 0.57
14 | TTTTATTTGACAAGCACACACTTAAATATATATATA [CACACA_site5792] | 10.2 ± 0.21
15 | ACGAAGTATATGAATACACACATATTTTTAATGAAA [CACACA_site4070] | 10.1 ± 0.18
16 | AGTAAATTTGATGGTCGTACAAAAAAAAAGTAGGAC [XGTACX_site2600] | 11.5 ± 0.83
17 | TTTTTAATCAGAAATATTTATTAAAGAATTTTATAG [GTGCAC_negctrl_site725] | 9.555 ± 0.092
18 | ATATACATAATTTGGAGTACAATATCATATAAATAT [XGTACX_site6334] | 11.5 ± 0.79
19 | GTATAAAATATTTTATGTACATAATATATATATATA [XGTACX_site2489] | 11.2 ± 0.46
20 | AAATAAAGGAAATGTATATCAACATTAAAATAAGGC [CACACA_negctrl_site441] | 10.05 ± 0.085
21 | AATGTACAAATACGTACACACATATATATATATATA [CACACA_site1542] | 11.6 ± 0.93
22 | TTTTACAATAACAATACACACTATAATATGTAAATA [CACACA_site6772] | 10.03 ± 0.042
23 | CATTTAAAATTTGTTTGTACATATATATATATATAT [XGTACX_site6729] | 11 ± 0.66

Row | Sequence | gcPBM binding intensity (ln)
24 | ATATATATATATATATGTACTTATGTCATCATTAAA [XGTACX_site5316] | 11.2 ± 0.9
25 | TATATGTATGTTTGTGTGCACACATAAATATTATAT | 10.6 ± 0.36
26 | TATATATATAAAAAAAGTACGTATTTAATAAAAATA [XGTACX_site4992] | 11.5 ± 0.72
27 | GATATTATGTGTTTGGTATTTCGATCTTGTCAGGAC [CACACA_negctrl_site426] | 10.2 ± 0.12
28 | ATTTCTATATATTGTGCATGCCATTACACCAAATAT [TGCATGCA_site813] | 10.3 ± 0.16
29 | TATATATATAAATACACACACACATATATATATATA [CACACA_site4585] | 10.2 ± 0.28
30 | TGTAGTTTTTATTTATGTACGCATAACATAATTTAA [XGTACX_site104] | 11.6 ± 0.7
31 | TCATTTTACAGATGTGCATGTGAATCAATCTATTTA [TGCATGCA_site787] | 9.74 ± 0.16
32 | AATATACAAATTACAAGTACAAATCAATATTATATG [XGTACX_site7521] | 11 ± 0.58
33 | AAAAAAAAAAAAAAAACACACAAACAAATGAATAAA [CACACA_site5769] | 10.1 ± 0.35
34 | GTATATAATTTATATTGTACGCATATTATTATCATT [XGTACX_site7277] | 11.5 ± 1
35 | TATATAAATAAAAAAAGTACATTACTTTTTAATTTA [XGTACX_site285] | 11.3 ± 0.86
36 | ATCATACCTTTTAATGTACACACATTTCTTTTTTGT [CACACA_site8198] | 11.3 ± 0.6
37 | CATACCCATAAACACACACACATATATACCTATATA [CACACA_site4745] | 9.99 ± 0.11
38 | AGAAAGGATATTATATGTACATATCTTTGTATTTTT [XGTACX_site5040] | 11.1 ± 0.54
39 | TAGTATGATAACTTGGGTACATAAATATGGAGTATC [XGTACX_site1296] | 11.3 ± 0.74
40 | TTTTTAATTCAAAAAACTGTATGTTATATGTCAAAT [CACACA_negctrl_site72] | 10 ± 0.15
41 | TTCATTTTATTTTAAGTGCATATTTTTATTTTTTTG | 9.92 ± 0.11
42 | AATTTAATATTCATCTCTAAAGCTATAACAATTACT [CACACA_negctrl_site1079] | 9.76 ± 0.16
43 | TCCTTAAAATATGGTTGTACGTACATCCTAGGTGTT [XGTACX_site7068] | 11.7 ± 0.97
44 | TTTTATCAATAAATTCGTACACATGAACTAGAGAGT [XGTACX_site5758] | 11.4 ± 0.84
45 | TACATTCTAATAATTGCACACTGGTTATTAAAAGGA [CACACA_site1614] | 10 ± 0.11
46 | TTTTTATTTATATTTCATTGAAGTTAAATTATTTTA [XGTACX_negctrl_site575] | 9.66 ± 0.11

Row | Sequence | gcPBM binding intensity (ln)
47 | ATTAGTATATTTCTCTGTACTTACATTAAAATATAA [XGTACX_site2217] | 11.4 ± 0.95
48 | AAATTATTTCAAATGTTGCACTAAAAATAAAATTAT [GTGCAC_site9460] | 9.915 ± 0.078
49 | ATACAAATTTATATTTCACACATTATTATATACTTA [CACACA_site6034] | 9.79 ± 0.26
50 | TCTGAAAATTAGAAAAGTACAAAATGGTATAGGAAA [XGTACX_site4396] | 11.2 ± 0.64
51 | ATATATATATATAAATGTACAGGCTTATCTCTTATT [XGTACX_site1828] | 10.9 ± 0.8
52 | TGTATTATATATGTGTGTACATATTTTTTTTTTTTT [XGTACX_site3351] | 11.5 ± 1.1
53 | CGCACACGCAGACACACACACACATATAAATAAATA [CACACA_site7101] | 10.2 ± 0.34
54 | AAAAAAAAGAAAAAAAAAAAAAAAAAAAAAAAAAAA [CACACA_negctrl_site489] | 9.69 ± 0.42
55 | AATACATGCTAAAAACGTACACGTATAAAATTATAT [XGTACX_site3169] | 11.4 ± 0.88
56 | AAATTATTTCTTTGCGCATGTAGCTTTTATACTATT [TGCATGCA_site819] | 9.98 ± 0.16
57 | ACATAAATAATAAAAACACACATATGTACCTATATA [CACACA_site6982] | 11.2 ± 0.72
58 | AATTTAATATAATGCACACATAAAAAAAAAATCAAA [CACACA_site1] | 10.1 ± 0.18
59 | TTTTTTTTTTTGGCTAGTACATATGTATTTAAAATG [XGTACX_site7770] | 10.9 ± 0.64
60 | GGTGAAATTATTTCTACATGCAGAAATAATTAATTA [TGCATGCA_site194] | 9.84 ± 0.14
61 | TGTTGTTCCAATTTTTGTACATAAAACATATATATA [XGTACX_site5719] | 11.1 ± 0.54
62 | AAGAAAATATAAAATGCACACTATAAATTGTATATA [CACACA_site7928] | 9.76 ± 0.3
63 | AAAAAAAAAAAAAATTGTACATTAAATTAAAAGAAA [XGTACX_site8708] | 10.9 ± 0.71
64 | AAAAAAAAAAATACTTGTACTTATATAATATATTAT [XGTACX_site8333] | 11.1 ± 0.75
65 | GTAATATTTTATAGTAGTACATATTTTTATTATTTT [XGTACX_site3333] | 11.4 ± 0.89
66 | GAGAGGTCAGTTCACAGTACCCAGAAACTCTACGAG [XGTACX_site2559] | 11.2 ± 0.91
67 | GAGAAAAGGAAATAACGTACACATATGCATATCCAA [XGTACX_site5858] | 11.3 ± 0.77
68 | TATTTATTGTGACACTTTTATTATTTTATGATAAAA [CACACA_negctrl_site37] | 10.4 ± 0.46
69 | GTGTTCTTGTTATACACACACATATATATATATATA [CACACA_site1032] | 10.4 ± 0.23

Row | Sequence | gcPBM binding intensity (ln)
70 | TGAAAGAAGCATAAATGTACACACATATTTATATAT [XGTACX_site2645] | 11.1 ± 0.5
71 | AATATTTATTTAATTTCACACAGGTCTTTTTTTTTT [CACACA_site5188] | 9.925 ± 0.035
72 | TTGTTCTTATTTCATTTTTATATGATATTTCATTAT [CACACA_negctrl_site1619] | 10.1 ± 0.11
73 | TGAAGAATATTTTTCACACATATATATATATATATA [CACACA_site6080] | 10 ± 0.54
74 | TGAATATATAAATATGCACACTTCTATTATAAATAA [CACACA_site5796] | 9.94 ± 0.028
75 | TAACATATAAGTGTGTGTACGTACTGCGTATAATAT [XGTACX_site8597] | 11.5 ± 0.81
76 | GACAAACAATATGAATGTACATAAAAATATAACTAA [XGTACX_site1167] | 11.1 ± 0.38
77 | ATATATATATATATATGTACATATTTTTGTTTGATG [XGTACX_site51] | 11.2 ± 0.83
78 | CAGATATTCATATAAACACACATACAAATTATGTAT [CACACA_site4258] | 9.865 ± 0.035
79 | TATATATATAATTAAGCATGCTAGAAACCTTTGAAA [TGCATGCA_site489] | 9.93 ± 0.18
80 | TACAATCTAAAATACACACGCACACCGAAAAAAAAA [CACACA_site3520] | 10.4 ± 0.4
81 | ATATATATATATATTGCACACACAATTATTATTATT [CACACA_site8721] | 10.1 ± 0.35
82 | ATATAATATTTATATGTACACACCTTAATCCTTAAA [CACACA_site3555] | 11.3 ± 0.81
83 | ATAAACGTTTTTGAAAGTACATATCATTCATTTGAT [XGTACX_site200] | 11 ± 0.64
84 | TTTTAACATATAAGTACACACATATAATCAATCATA [CACACA_site2325] | 11.5 ± 0.99
85 | ATGTAGAAGTAATGCACACATATGTATTTATATATA [CACACA_site5391] | 10.1 ± 0.057
86 | CCTTATAAATACTGCACACATAAAATATATATTATC [CACACA_site2806] | 10.2 ± 0.18
87 | TTTTATCGTTTTTTTTTTTTTTTTTTTTTTTTTTTT [CACACA_negctrl_site1309] | 10.9 ± 0.49
88 | TTTGTTCATATGAAATGTACAAAAAAAAAAAAAAAA [XGTACX_site8849] | 10.8 ± 0.77
89 | TATATATATAAAAAAGCACACATACATACATACATA [CACACA_site8196] | 10.1 ± 0.12
